# Measurements as given in the RNAGym collection of RNA variant scans (doi:10.7554/elife.90254).
# Read counts are not given, so values of variants with three or more changes are uncertain.
# B1: LINE1-full (parent)
# chain: UACGUAGGUGGUUUUCCCCUGAUAGUGCUAAGGGGGCCUGGAAGUUUGGACUGGGCAGAGCUCAACACAGCGUGGCAAAGUGGCUGUGGCUAGACUGCCUCUCUGGAUUCCUCGUCACUCAGCAGGGCAUCUCUGAGAGAAAUGCC
# Variants of: B1
# Test: self-cleavage, relative activity (ratio to wild type); higher = more cleavage; in vitro, sequencing; the parent is a self-cleaving ribozyme
row,Variant,self-cleavage
1,G35A G48U A77G U108C A136G,2.99
2,C38U C71A U119C G137U,0.45
3,G35A A42G U46C C76A,1.59
4,G36U A94G A107G,0.1
5,G35A A77U G93U,0.01
6,C38U A64G U130C,0.16
7,U39A A57G A121G,1.29
8,G35U A42G U130C,1.64
9,G35A A59G U81C A129G,0
10,G35C A50G A64U,0.43
11,U39A A78G U112C A140U,0.65
12,G34C A42G G44A,1.75
13,G36C A43G C63U U85C,0.04
14,C37G G55U U115C,0.36
15,G35U U81A A142C,2.1
16,U39C A43G U112C,1.64
17,G35A C56A A79G A94U U104C,0
18,C38U A67U U81C U87C U100C A138G,0
19,U39A A50U A64U U130C,0.23
20,G36U A57G A79U,0.85
21,G36A A50G U87A,0.04
22,U39A G89C A129G A141G,0
23,G35U A59G U87C,0
24,G35A A42G C133A A138U,1.79

row,Variant,self-cleavage
1,U39C A65G A142G,0
2,G35A U46G U100C A117G U130C,2.51
3,G34U A67G G74A U81C U87A,0.11
4,U39A U62C A141G,0.01
5,U39C A50G C113U,1.08
6,G35A U52G A92G A129G A141G,0.07
7,C37U G74A A124G G135A,1.18
8,U39C A42G U132A,0.66
9,U39A A50G U62C,0.11
10,C37G U39A G41A U62A A79G U96C,0.07
11,G34A U85C U87C A107G,0.31
12,U39C A50U A94G,0.53
13,G36U G53A U81G A138U,1.01
14,U39A A42U A57G U87C,0.23
15,C38U U45G U47C,1.44
16,G33U U73A A92G,0.13
17,G35U A43G A59G U73A C146A,1.84
18,G34U A65G U73A G125A,0.02
19,G36A A69G A94G,0.11
20,U39A A57U C146U,0.07
21,U39A A67U U81A U100C A107G,0.22
22,G36U U96C U119C A141G,0.18
23,U39A U45C A57U U108C U119C,0.44
24,U39A A43G U119A A142G,0.39

row,Variant,self-cleavage
1,U39A U115G U130C,2.22
2,G34U A94C U108C U130C,0.12
3,U39A U85C U104A A140G,0.1
4,U39C A67G A78G,0.92
5,G34U G74A U115A,1.09
6,G36A A65U A67G A79G A107G,0
7,G33U G82A U100A A117G C128U,0.8
8,G34U A50U U81A U115A,1.59
9,G35A U62C U109A C111A A138G,0.02
10,G36U C118U U119A,0.71
11,U39A A57G U85C C90U,0.05
12,G35U A64U U73C A141G,0.48
13,U39A G72U C101A,2.63
14,G36A U102C A140G,1.35
15,U39A U87C A136U,0.11
16,C38A A92G U104C A142G,0.08
17,G36A A67G G86A U91C A92G U119C U130C,0
18,G34C A59U U96C,0.07
19,U39A A78G U115C,1.29
20,U39A A65G A129G A136U,0
21,U39A C61U A79U,0.05
22,U39A A59G A64U U108C,0
23,U39A A69G U104C,1.75
24,G33U G55A A78G A94C A124G,0.05

row,Variant,self-cleavage
1,G34A U46G U96C,0.05
2,U39A U85C A138U,0.11
3,U39A A57G A59G U100C,0.16
4,G35U U104C A129G U143A,1.24
5,U39A U115C C131U A136G,1.38
6,U39A A117U U119C,1.58
7,G36A A67G U96C,0.04
8,U39A A64U U73C U85A C128U U134A,0.03
9,U39C A64G A65G A77G G93A,0
10,U39A A50G U119C,1
11,U39A U45C C76U,1.89
12,U39A A64G G75U,0.13
13,G35A A79G U87A,0.05
14,G33U U39A A59G U102C,0.13
15,U39A C56U A69U U96C A140G,0.12
16,G36A G55A A64U A65G U96C A142G,0.02
17,G34U U91C U96A,0.08
18,G36A U112C U119C U130C,1.57
19,U39A U134C U143A,1.02
20,G33U C38U U47A A121U U132A,1.42
21,U39C A59G U112C,0.39
22,U39A U45C C63U C76U C98A A141G,0.08
23,G35A A42G G75A C103U,1.25
24,G34A A92G U100A U132C,0

row,Variant,self-cleavage
1,U39C A57U A69G A107U,0
2,C37U U119C U134C,1.42
3,U39A A79G U100C C120U,1.36
4,C37A U47A U96A,0.04
5,U39A U47C U62C C98G C128U G144A,0.03
6,G35A C103G A121G,1.71
7,U39A U115C U130C U143C,2.12
8,U39A A50U A79G U91C U132A,0
9,U39A A57G U91C,0.11
10,G35A U62C U96A U100C A141G,0
11,G35A G54A U62C U112C,0.04
12,G34U G36A U104A A136G A142G,1.44
13,U39A U85C U104A U109A G114A C128U,0.05
14,G35A U96A U119A,0.05
15,U39A A43G U130C,1.21
16,C37A A69U G75A U119C,0.04
17,G35A A69G U102A,0.5
18,C37U U45C A129U,1.05
19,U39C A43G U100C U119C A138G,1.53
20,C37U G40A A78C,1.38
21,U39A A77G A121U,2.46
22,U39C A43G A140G,0.28
23,U39A U134C A142G,1.51
24,G34A A42G U85A C95U A142G,0.09

row,Variant,self-cleavage
1,G35U U52A G53A,1.36
2,C38U U39C U45C,0.89
3,G35A A65G A107G U130C A142G,0
4,U39A U102C A142G,1.47
5,G34A A59U U62A,0.02
6,G33U U47C U52C G86A,0.1
7,U39C A64G U87C,0
8,G34U A94U A121G G125A,0.29
9,U39A C111U A142G,1.08
10,G36A U47A G70A U91C A140G,0.02
11,U39A A59G A64C G127U,0.1
12,U39A C51A A59C A69G,0.6
13,G35A C76U C118A,2.44
14,U39A A65G U85C,0.14
15,G36A A92C U119C,0.19
16,C38U U73A A141G,2.42
17,C37U C71U U108C A129G,0.87
18,C38U A78G A142G,1.61
19,C38U A42G G74U U100C,1.87
20,U39A U46G U62C A64U U100A,0
21,U39A U119C A121U A138G,1.71
22,G35A U87C A142G C146U,0.1
23,G36A A94G U96C,0.02
24,U39C A67U A94C,0

row,Variant,self-cleavage
1,G36A U73C U112C A136G A138G,2.15
2,U39A U47A A57G G74U A77G,0.85
3,U39A A43G U62C,0.04
4,G34A G49C A50G U102C,0.57
5,U39C A42U A124U,1.01
6,G34A A57U A129G,0.04
7,G35A A94G A117G U130C,0
8,G34A A92G A117U,0.06
9,U39A C66U A78G U85A G89A A142G,0.01
10,U39C A57G U62C,0.35
11,C37U U47C U134C,1.4
12,C37U U109A U119C A141G U143C,1.26
13,G34U U87A A129G,0.12
14,G36A G58A A94G U115G,0.04
15,G34U A42G A57G U87A,0.18
16,U39C A59G A67U U102C A121U G126A,0.14
17,U39A A65G A129C,0.06
18,C37G U62A G137A,0.08
19,U39A C113A U132C A138U,1.39
20,G35A U47C U73A A78G,0.18
21,U39A A94U U112C,0.23
22,U39A U85A U96C,0.05
23,G34A U102A A136G U143G,0.29
